Experimental data reported in US10428149 (dated 2019).

Experiments:
[1] = target: T1, TRAIL-R2 (DR5) (human, UniProt O14763); assay: ELISA
[2] = target: T1, TRAIL-R2 (DR5); assay: ELISA; remark: listed apart in the source
[3] = target: TRAIL-R1 (DR4) (human, UniProt O00220); assay: ELISA
[4] = target: T1, TRAIL-R2 (DR5); assay: FACS, Colo205 cells
[5] = target: T2, EGFR (human, UniProt P00533); assay: ELISA
[6] = target: T2, EGFR; assay: FACS, Colo205 cells

B1: Fc-scTRAIL3-FLVGGGPQRVA (designed binder)
chain: DYKDDDDKGGGGSGT[sequence of human IgG1 Fc omitted]GGSGGGSSGGGPQRVAAHITGTRGRSNTLSSPNSKNEKALGRKINSWESSRSGHSFLSNLHLRNGELVIHEKGFYYIYSQTYFRFQEEIKENTKNDKQMVQYIYKYTSYPDPILLMKSARNSCWSKDAEYGLYSIYQGGIFELKENDRIFVSVTNEHLIDMDHEASFFGAFLVGGGPQRVAAHITGTRGRSNTLSSPNSKNEKALGRKINSWESSRSGHSFLSNLHLRNGELVIHEKGFYYIYSQTYFRFQEEIKENTKNDKQMVQYIYKYTSYPDPILLMKSARNSCWSKDAEYGLYSIYQGGIFELKENDRIFVSVTNEHLIDMDHEASFFGAFLVGGGPQRVAAHITGTRGRSNTLSSPNSKNEKALGRKINSWESSRSGHSFLSNLHLRNGELVIHEKGFYYIYSQTYFRFQEEIKENTKNDKQMVQYIYKYTSYPDPILLMKSARNSCWSKDAEYGLYSIYQGGIFELKENDRIFVSVTNEHLIDMDHEASFFGAFLVG
- EC50 [1]: 0.34 nM
- EC50 [2]: 2.42 nM
- EC50 [3]: 1.63 nM
- EC50 [4]: > 100 nM

B2: scFvhu225-Fc-scTRAIL3-FLVGGGPQRVA (antibody)
chain: DYKDDDDKGGGGSGTEVQLVESGGGLVQPGGSLRLSCAASGFSLTNYGVHWVRQAPGKGLEWLGVIWSGGNTDYNTPFTSRFTISRDNSKNTLYLQMNSLRAEDTAVYYCARALTYYDYEFAYWGQGTTVTVSSGGGGSGGGGSGGGGSDIQLTQSPSFLSASVGDRVTITCRASQSIGTNIHWYQQKPGKAPKLLIKYASESISGVPSRFSGSGSGTEFTLTISSLQPEDFATYYCQQNNNWPTTFGAGTKLEIKRAAAGGSGG[sequence of human IgG1 Fc omitted]GGSGGGSSGGGPQRVAAHITGTRGRSNTLSSPNSKNEKALGRKINSWESSRSGHSFLSNLHLRNGELVIHEKGFYYIYSQTYFRFQEEIKENTKNDKQMVQYIYKYTSYPDPILLMKSARNSCWSKDAEYGLYSIYQGGIFELKENDRIFVSVTNEHLIDMDHEASFFGAFLVGGGPQRVAAHITGTRGRSNTLSSPNSKNEKALGRKINSWESSRSGHSFLSNLHLRNGELVIHEKGFYYIYSQTYFRFQEEIKENTKNDKQMVQYIYKYTSYPDPILLMKSARNSCWSKDAEYGLYSIYQGGIFELKENDRIFVSVTNEHLIDMDHEASFFGAFLVGGGPQRVAAHITGTRGRSNTLSSPNSKNEKALGRKINSWESSRSGHSFLSNLHLRNGELVIHEKGFYYIYSQTYFRFQEEIKENTKNDKQMVQYIYKYTSYPDPILLMKSARNSCWSKDAEYGLYSIYQGGIFELKENDRIFVSVTNEHLIDMDHEASFFGAFLVG
- EC50 [5]: 0.86 nM
- EC50 [2]: 1.52 nM
- EC50 [6]: 1.33 nM

B5: Fc-scTRAIL3-FAVSGAA (designed binder)
chain: METDTLLLWVLLLWVPGSTGDYKDDDDKGGGGSGT[sequence of human IgG1 Fc omitted]GSGNGTSNGTSGSSGGAAAHITGTRGRSNTLSSPNSKNEKALGRKINSWESSRSGHSFLSNLHLRNGELVIHEKGFYYIYSQTYFRFQEEIKENTKNDKQMVQYIYKYTSYPDPILLMKSARNSCWSKDAEYGLYSIYQGGIFELKENDRIFVSVTNEHLIDMDHEASFFGAFAVSGAAAHITGTRGRSNTLSSPNSKNEKALGRKINSWESSRSGHSFLSNLHLRNGELVIHEKGFYYIYSQTYFRFQEEIKENTKNDKQMVQYIYKYTSYPDPILLMKSARNSCWSKDAEYGLYSIYQGGIFELKENDRIFVSVTNEHLIDMDHEASFFGAFAVSGAAAHITGTRGRSNTLSSPNSKNEKALGRKINSWESSRSGHSFLSNLHLRNGELVIHEKGFYYIYSQTYFRFQEEIKENTKNDKQMVQYIYKYTSYPDPILLMKSARNSCWSKDAEYGLYSIYQGGIFELKENDRIFVSVTNEHLIDMDHEASFFGAFAVS
- EC50 [1]: 0.34 nM
- EC50 [3]: 2.15 nM

Continued, values first:

- EC50 [1]: 0.69 nM
- EC50 [3]: 6.36 nM
B3: scTRAIL3-FAVSGAA-Fc (designed binder)
chain: METDTLLLWVLLLWVPGSTGDYKDDDDKGGGGSGTGGAAAHITGTRGRSNTLSSPNSKNEKALGRKINSWESSRSGHSFLSNLHLRNGELVIHEKGFYYIYSQTYFRFQEEIKENTKNDKQMVQYIYKYTSYPDPILLMKSARNSCWSKDAEYGLYSIYQGGIFELKENDRIFVSVTNEHLIDMDHEASFFGAFAVSGAAAHITGTRGRSNTLSSPNSKNEKALGRKINSWESSRSGHSFLSNLHLRNGELVIHEKGFYYIYSQTYFRFQEEIKENTKNDKQMVQYIYKYTSYPDPILLMKSARNSCWSKDAEYGLYSIYQGGIFELKENDRIFVSVTNEHLIDMDHEASFFGAFAVSGAAAHITGTRGRSNTLSSPNSKNEKALGRKINSWESSRSGHSFLSNLHLRNGELVIHEKGFYYIYSQTYFRFQEEIKENTKNDKQMVQYIYKYTSYPDPILLMKSARNSCWSKDAEYGLYSIYQGGIFELKENDRIFVSVTNEHLIDMDHEASFFGAFAVSGSGNGTSNGTSGSSGG[sequence of human IgG1 Fc omitted]

- EC50 [1]: 0.42 nM
- EC50 [3]: 3.24 nM
B4: scTRAIL3-FAVSGAA-25 G/S-Fc (designed binder)
chain: METDTLLLWVLLLWVPGSTGDYKDDDDKGGGGSGTGGAAAHITGTRGRSNTLSSPNSKNEKALGRKINSWESSRSGHSFLSNLHLRNGELVIHEKGFYYIYSQTYFRFQEEIKENTKNDKQMVQYIYKYTSYPDPILLMKSARNSCWSKDAEYGLYSIYQGGIFELKENDRIFVSVTNEHLIDMDHEASFFGAFAVSGAAAHITGTRGRSNTLSSPNSKNEKALGRKINSWESSRSGHSFLSNLHLRNGELVIHEKGFYYIYSQTYFRFQEEIKENTKNDKQMVQYIYKYTSYPDPILLMKSARNSCWSKDAEYGLYSIYQGGIFELKENDRIFVSVTNEHLIDMDHEASFFGAFAVSGAAAHITGTRGRSNTLSSPNSKNEKALGRKINSWESSRSGHSFLSNLHLRNGELVIHEKGFYYIYSQTYFRFQEEIKENTKNDKQMVQYIYKYTSYPDPILLMKSARNSCWSKDAEYGLYSIYQGGIFELKENDRIFVSVTNEHLIDMDHEASFFGAFAVSGGSGGGGSGGGGSGGGGSGGGGSGG[sequence of human IgG1 Fc omitted]

- EC50 [1]: 0.43 nM
- EC50 [3]: 4.45 nM
B6: scTRAIL3-FAVSGAA-20 G/S-Fc (designed binder)
chain: METDTLLLWVLLLWVPGSTGDYKDDDDKGGGGSGTGGAAAHITGTRGRSNTLSSPNSKNEKALGRKINSWESSRSGHSFLSNLHLRNGELVIHEKGFYYIYSQTYFRFQEEIKENTKNDKQMVQYIYKYTSYPDPILLMKSARNSCWSKDAEYGLYSIYQGGIFELKENDRIFVSVTNEHLIDMDHEASFFGAFAVSGAAAHITGTRGRSNTLSSPNSKNEKALGRKINSWESSRSGHSFLSNLHLRNGELVIHEKGFYYIYSQTYFRFQEEIKENTKNDKQMVQYIYKYTSYPDPILLMKSARNSCWSKDAEYGLYSIYQGGIFELKENDRIFVSVTNEHLIDMDHEASFFGAFAVSGAAAHITGTRGRSNTLSSPNSKNEKALGRKINSWESSRSGHSFLSNLHLRNGELVIHEKGFYYIYSQTYFRFQEEIKENTKNDKQMVQYIYKYTSYPDPILLMKSARNSCWSKDAEYGLYSIYQGGIFELKENDRIFVSVTNEHLIDMDHEASFFGAFAVSGGSGGGGSGGGGSGGGGSGG[sequence of human IgG1 Fc omitted]

- EC50 [1]: 0.54 nM
- EC50 [3]: 3.91 nM
B7: scTRAIL3-FAVSGAA-"W"-Fc (designed binder)
chain: METDTLLLWVLLLWVPGSTGDYKDDDDKGGGGSGTGGAAAHITGTRGRSNTLSSPNSKNEKALGRKINSWESSRSGHSFLSNLHLRNGELVIHEKGFYYIYSQTYFRFQEEIKENTKNDKQMVQYIYKYTSYPDPILLMKSARNSCWSKDAEYGLYSIYQGGIFELKENDRIFVSVTNEHLIDMDHEASFFGAFAVSGAAAHITGTRGRSNTLSSPNSKNEKALGRKINSWESSRSGHSFLSNLHLRNGELVIHEKGFYYIYSQTYFRFQEEIKENTKNDKQMVQYIYKYTSYPDPILLMKSARNSCWSKDAEYGLYSIYQGGIFELKENDRIFVSVTNEHLIDMDHEASFFGAFAVSGAAAHITGTRGRSNTLSSPNSKNEKALGRKINSWESSRSGHSFLSNLHLRNGELVIHEKGFYYIYSQTYFRFQEEIKENTKNDKQMVQYIYKYTSYPDPILLMKSARNSCWSKDAEYGLYSIYQGGIFELKENDRIFVSVTNEHLIDMDHEASFFGAFAVSGGSGEAAAKEAAAKEAAAKEAAAKEAAAKGSGG[sequence of human IgG1 Fc omitted]

One block for each binder: values may come before it.
